Experimental data published in PMC12466843.
No constants are given. Whether binding was seen depends on the method and setting. Binding seen in cells or lysates may run through a third protein. Some results given as binding are weak or reduced against the parent protein; the word gives no strength. Tags and fused reporters may be left off the sequences shown.

The chains behind the UniProt entries cited, without tags or fusion partners.
UniProt Q9ULZ3: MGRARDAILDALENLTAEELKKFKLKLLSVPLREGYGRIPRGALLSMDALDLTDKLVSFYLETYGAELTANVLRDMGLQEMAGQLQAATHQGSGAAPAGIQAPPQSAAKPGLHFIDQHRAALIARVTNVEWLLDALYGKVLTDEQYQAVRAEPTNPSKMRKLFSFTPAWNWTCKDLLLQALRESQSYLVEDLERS
UniProt P29466: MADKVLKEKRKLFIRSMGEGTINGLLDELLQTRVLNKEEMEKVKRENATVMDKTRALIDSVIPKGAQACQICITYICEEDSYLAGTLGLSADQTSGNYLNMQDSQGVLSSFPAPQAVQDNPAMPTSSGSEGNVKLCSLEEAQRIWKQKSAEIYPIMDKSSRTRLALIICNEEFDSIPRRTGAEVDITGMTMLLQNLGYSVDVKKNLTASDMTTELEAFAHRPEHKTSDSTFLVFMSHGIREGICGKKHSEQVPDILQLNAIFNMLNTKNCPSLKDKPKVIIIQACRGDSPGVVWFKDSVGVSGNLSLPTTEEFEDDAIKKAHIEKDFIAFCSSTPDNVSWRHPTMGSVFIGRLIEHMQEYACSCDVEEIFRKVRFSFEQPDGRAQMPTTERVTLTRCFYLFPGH
UniProt Q96P20: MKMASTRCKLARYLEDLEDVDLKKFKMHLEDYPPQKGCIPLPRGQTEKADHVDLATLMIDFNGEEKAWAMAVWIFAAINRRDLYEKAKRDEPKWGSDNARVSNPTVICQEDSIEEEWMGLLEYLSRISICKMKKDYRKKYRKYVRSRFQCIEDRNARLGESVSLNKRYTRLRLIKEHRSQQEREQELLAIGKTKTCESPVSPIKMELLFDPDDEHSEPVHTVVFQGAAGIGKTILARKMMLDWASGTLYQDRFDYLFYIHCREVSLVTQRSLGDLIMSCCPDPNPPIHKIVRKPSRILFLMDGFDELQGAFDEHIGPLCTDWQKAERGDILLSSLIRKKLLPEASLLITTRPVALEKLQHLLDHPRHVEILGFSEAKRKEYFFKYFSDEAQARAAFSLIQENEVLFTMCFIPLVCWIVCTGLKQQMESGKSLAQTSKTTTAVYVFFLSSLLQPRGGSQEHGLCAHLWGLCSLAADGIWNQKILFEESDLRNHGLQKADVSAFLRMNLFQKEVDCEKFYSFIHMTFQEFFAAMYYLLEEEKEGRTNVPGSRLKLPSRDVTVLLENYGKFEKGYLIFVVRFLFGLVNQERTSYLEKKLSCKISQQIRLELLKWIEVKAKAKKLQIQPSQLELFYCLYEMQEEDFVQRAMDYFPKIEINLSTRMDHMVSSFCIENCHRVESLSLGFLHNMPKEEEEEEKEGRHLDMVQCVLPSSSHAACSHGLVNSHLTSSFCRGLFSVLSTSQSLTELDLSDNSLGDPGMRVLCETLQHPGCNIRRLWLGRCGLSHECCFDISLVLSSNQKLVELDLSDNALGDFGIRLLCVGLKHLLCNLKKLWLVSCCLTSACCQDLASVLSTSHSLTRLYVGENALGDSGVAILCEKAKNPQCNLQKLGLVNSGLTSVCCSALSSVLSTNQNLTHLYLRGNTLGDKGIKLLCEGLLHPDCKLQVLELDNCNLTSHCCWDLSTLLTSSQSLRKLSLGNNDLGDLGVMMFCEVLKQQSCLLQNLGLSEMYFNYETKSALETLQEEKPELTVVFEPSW

Tests used:
Assay in all cases: co-IP; HEK293T cells transfected with Myc- and Flag-tagged plasmids; lysates immunoprecipitated with anti-c-Myc beads at 4°C overnight; IP lysis buffer (150 mM NaCl, 100 mM tris-HCl pH 8.0, 0.5% Triton X-100, 2 mM EDTA); immunoblot (Fig. 1B, C, I, J)
[1] = target: Myc-human ASC (human) (UniProt Q9ULZ3)
[2] = target: Myc-human pro–caspase-1 (human) (UniProt P29466)
[3] = target: Myc-tagged human NLRP3 (human) (UniProt Q96P20)

binding [1]: no binding
binding [2]: no binding
binding [3]: binds
B1: Flag-tagged human USP13 (enzyme, UniProt Q92995 1-863)
chain: MQRRGALFGMPGGSGGRKMAAGDIGELLVPHMPTIRVPRSGDRVYKNECAFSYDSPNSEGGLYVCMNTFLAFGREHVERHFRKTGQSVYMHLKRHVREKVRGASGGALPKRRNSKIFLDLDTDDDLNSDDYEYEDEAKLVIFPDHYEIALPNIEELPALVTIACDAVLSSKSPYRKQDPDTWENELPVSKYANNLTQLDNGVRIPPSGWKCARCDLRENLWLNLTDGSVLCGKWFFDSSGGNGHALEHYRDMGYPLAVKLGTITPDGADVYSFQEEEPVLDPHLAKHLAHFGIDMLHMHGTENGLQDNDIKLRVSEWEVIQESGTKLKPMYGPGYTGLKNLGNSCYLSSVMQAIFSIPEFQRAYVGNLPRIFDYSPLDPTQDFNTQMTKLGHGLLSGQYSKPPVKSELIEQVMKEEHKPQQNGISPRMFKAFVSKSHPEFSSNRQQDAQEFFLHLVNLVERNRIGSENPSDVFRFLVEERIQCCQTRKVRYTERVDYLMQLPVAMEAATNKDELIAYELTRREAEANRRPLPELVRAKIPFSACLQAFSEPENVDDFWSSALQAKSAGVKTSRFASFPEYLVVQIKKFTFGLDWVPKKFDVSIDMPDLLDINHLRARGLQPGEEELPDISPPIVIPDDSKDRLMNQLIDPSDIDESSVMQLAEMGFPLEACRKAVYFTGNMGAEVAFNWIIVHMEEPDFAEPLTMPGYGGAASAGASVFGASGLDNQPPEEIVAIITSMGFQRNQAIQALRATNNNLERALDWIFSHPEFEEDSDFVIEMENNANANIISEAKPEGPRVKDGSGTYELFAFISHMGTSTMSGHYICHIKKEGRWVIYNDHKVCASERPPKDLGYMYFYRRIPS
